Measured values from ChEMBL document CHEMBL5308541, “MAIP: An Open-Source Tool to Enrich High-Throughput Screening Output and Identify Novel, Druglike Molecules with Antimalarial Activity” (ACS Med Chem Lett, 2023).
Among all 150,000 compounds or so, about 540 (0.36%) showed an effect of 50% or more. The list shows a part of the results.

Tested on: Plasmodium falciparum
Assay: Primary screen in NF54 nanoGlo assay, in single point, at 2uM, 72h; a lower Z score goes with more inhibition
Assay type: functional, Erythrocyte
Settings: timepoint 72 hour

SMILES	% Inhibition	Z score
CN1CCN(c2cc(NCCCn3nnc4ccccc43)nc(N)n2)CC1	-4%	0.77
O=C(Nc1cnc2c(c1)COCC2)c1cc2c(OC(F)(F)F)cccc2[nH]1	93%	-14.17
CCOC(=O)N1CCC(NCCNc2ccc3ccccc3n2)CC1	-8%	1.69
Cc1cc2nc(N3CCCN(C4CCN(CCc5ccccc5)CC4)CC3)nc(C)c2cc1C	0%	-0.06
Nc1ccnc(-c2cccc3[nH]ccc23)c1	27%	-5.45
COc1ccc(-c2ccc(C(=O)N3CCC4(CC3)CNC(=O)O4)cc2)nn1	-4%	0.55
Cc1cc(N2CCCN(Cc3cncn3C3CCCCC3)CC2)ccn1	4%	-0.7
CCOc1ccc(-c2cccc3cnccc23)cc1CNC	13%	-1.92
CC(C)Oc1cc(N2CCN([C@H]3CCNC3)CC2)ncn1	-9%	1.87
O=C(Cc1coc2cc(Cl)ccc12)N1CCC[C@H](N2CCNCC2=O)C1	-6%	1.01
CCNc1ncc(-c2nc(CC3CCN(C)CC3)no2)cn1	2%	-0.3
Cn1cc(-c2ncc(C(=O)N3CC[C@H](N4CCNCC4)C3)s2)cn1	2%	-0.38
CC(C)NC1CCN(C[C@]2(O)CCN(Cc3ccccc3)C2)CC1	4%	-0.6
COc1ccc2oc(CN[C@H]3CCCO[C@@H]3c3ccncc3)cc2c1	-13%	2.89
CN(Cc1cc(-c2cccnc2)no1)C(=O)CN1CCN(c2ncccn2)CC1	-6%	1.39
O=C(N[C@@H](Cc1ccccc1)C(=O)N1CCN(C2CCCC2)CC1)OCc1ccccc1	5%	-1.11
NS(=O)(=O)c1ccc(CNC(=O)c2cc(C3CC3)nc3ccccc23)s1	-7%	1.53
CCOc1ccccc1CN(C(=O)c1ccc(CN2CCCC2)o1)C1CC1	2%	-0.29
CCc1oc2ccccc2c1CNC[C@H](O)c1ccc(Cl)cc1	98%	-19.37
CN(C[C@H]1CCCN(c2nc(-c3cccnc3)nc3ccccc23)C1)C(=O)OC(C)(C)C	2%	-0.3
CC1CC(C)C(C(=O)Nc2n[nH]cc2Br)O1 (stereo unspecified)	-6%	0.84

SMILES	% Inhibition	Z score
Cc1ccc(C)c2c(O)cc(CNC[C@H]3CCCN(CCO)C3)nc12	1%	-0.17
NC(=O)C1(N2CCCCC2)CCN(c2ncncc2-c2nc(-c3ccccc3)no2)CC1	-3%	0.56
COc1cccc(Nc2nc(-c3ccc(Cl)cc3)ncc2C(=O)NCC[C@H]2CCCN2C)c1	4%	-0.68
CN1CCN(C2(CNc3ncc(F)c(N(C)C)n3)CCCCC2)CC1	7%	-1.15
CC(C)(C)OC(=O)N1CCN(S(=O)(=O)c2ccc(C(F)(F)F)cc2)[C@H](C#N)C1	-8%	1.27
Cc1ccccc1-c1cccc(CN2CCN3CCN(C)C[C@H]3C2)c1	0%	-0.01
COC(C)C(=O)NC(C)COCC(C)C (stereo unspecified)	11%	-2.32
C[C@@H](CN1CCOCC1)N1CCC(OC2CCCCC2)CC1	-15%	3.03
CC1CCN(c2ccc(Nc3c(C(=O)O)cnc4c(C(F)(F)F)cccc34)cc2)CC1	7%	-1.43
CCCC[C@H](NCc1ccccc1OCCCN1CCN(C)CC1)c1cccnc1	13%	-2.64
FC(F)COc1ncnc2c1CCCC2	2%	-0.35
Cc1nccc([C@H]2CCCN(c3ncnc4[nH]ccc34)C2)n1	-5%	1.15
OCCN1CCN(C2CCN(c3cc(-c4ncon4)ccn3)CC2)CC1	-5%	0.75
C[C@@H](c1cccc(-c2ccc(C3(O)CCNCC3)cc2)c1)N1CCCC1	-8%	1.14
CCCO[C@@H](C)CNC(=O)c1ccc(C#CC(C)(C)O)cc1	-3%	0.5
Nc1cncc(-c2ccc3[nH]nc(N)c3c2)c1	-1%	0.17
Cc1nc(CN(CCN(C)C)C(=O)[C@]2(C)CCc3c(C)c(O)c(C)c(C)c3O2)c[nH]1	-11%	1.98
COc1ccc(-c2cc(C(=O)NC3CCCC(C)C3C)n[nH]2)cc1S(=O)(=O)N1CCOCC1 (stereo unspecified)	8%	-1.45
O=C(NC1CCN2CCCCC12)N1CC2CN3CCCCC3C2C1 (stereo unspecified)	-17%	2.99
CC(C)C(=O)N1CCC[C@H](NCc2cc3ccc(Cl)cc3nc2O)C1	-4%	0.77
FC(F)(F)CCCN[C@H]1CCCN(CC2CCCCC2)C1	-8%	1.3

SMILES	% Inhibition	Z score
Cc1ccc(C)c(NC(=O)c2ccc(Nc3nc(-c4ccccc4)c4ccc(Cl)cc4n3)cc2)c1	-7%	1.17
O=C([C@@H]1NCCc2[nH]cnc21)N1CCN(c2nsc3ccccc23)CC1	7%	-1.19
O=C([C@@H]1CC=CCC1)N1CCC(N2CCC(Oc3nccs3)CC2)CC1	-1%	0.23
FC(F)(F)c1nc(NC[C@H]2CCN(CCc3ccccc3)C2)c2[nH]cnc2n1	-1%	0.24
Cc1c(CNC(=O)Cc2c[nH]c3ccccc23)sc2nc(-c3ccc(F)cc3)cn12	-8%	1.45
CC(CC1CCCN1C(=O)OC(C)(C)C)Nc1ccc(N2CCN(C)CC2)cc1 (stereo unspecified)	-2%	0.41
c1cnc2ccc(CN(Cc3cncnc3)[C@H]3CCCNCC3)cc2c1	-12%	1.82
Cc1ccc(NC(=O)c2cc(-c3ccccc3)[nH]n2)c(-c2nc(C3CC3)n[nH]2)c1	17%	-2.53
O=C(NC1CCNCC1O)c1cccc(CN2CCCCCC2)c1 (stereo unspecified)	-4%	0.75
O=C(CCc1nnc(-c2ccsc2)o1)Nc1cnccc1N1CCCCC1	-5%	0.93
CCN1CCC[C@@H]1CN(CCN(C)C)C(=O)c1ccc(-c2cncnc2)cc1F	2%	-0.24
O=C(NCCNc1cnccn1)c1ccc(N2CCCCC2)c(S(=O)(=O)N2CCCCC2)c1	-14%	2.15
CN1CCC(Nc2nc(C(F)F)nc3ccc(Cl)cc23)CC1	-11%	2.03
OCC1CCCN1CC1CCCN1c1ncnc2scc(-c3ccccc3)c12 (stereo unspecified)	-1%	0.14
Cc1ccc(-n2cc(S(=O)(=O)N3CCCC3)cn2)cc1S(=O)(=O)N1CCCC1	-4%	0.63
c1cnc(N2CCCN(C3CCN(c4ccc5c(c4)OCO5)CC3)CC2)nc1	-14%	2.69
Fc1cc(CN2C3CCNCC2CC3)ccc1-n1ccnc1 (stereo unspecified)	8%	-1.45
CCN(C)C1(CNc2cc(C)nc(N)n2)CCCC1	-8%	1.63
c1ccc(N[C@H]2CC[C@H](Nc3nc(-c4cccnc4)nc4c3CCC4)CC2)nc1	11%	-1.69
C[C@H]1CCCCN1Cc1cccc(NC(=O)NCc2cccc3[nH]ccc23)c1	9%	-1.66
CC(C)N1CCC(N2CCC[C@H]2C(=O)Nc2cccc(-n3cccn3)c2)CC1	-4%	0.86

SMILES	% Inhibition	Z score
Cc1cc(CNc2ccc3[nH]ncc3c2)ccc1-n1cncn1	-2%	0.37
CCCN1CCC(NCc2cc(Br)c3c(c2)OCCCO3)CC1	7%	-1.41
O=C1C[C@H](NCc2cc(O)c3ccccc3n2)CN1Cc1ccc(F)cc1	7%	-1.18
N#Cc1cccc(Cl)c1N1CCC(O)(CN)CC1	-3%	0.43
CC(C)C(NC1CCOCC1)C(=O)N1CCCC2(CC=CCC2)C1 (stereo unspecified)	-8%	1.63
COCCCNC(=O)CN1C[C@H](C)Oc2c(F)cccc21	-6%	1.19
OCCN1CCN(C2CCN(Cc3cc(C4CCCCC4)no3)CC2)CC1	-3%	0.41
N#Cc1ccc(NCC(=O)NCCS(=O)(=O)C(F)(F)F)cc1	-9%	1.81
CCNc1ncc(CN2CCN(Cc3cccc(C(F)(F)F)c3)CC2)cn1	1%	-0.25
CC(O)CC1COCCN1CCCN1CCN(C(C)C)CC1 (stereo unspecified)	2%	-0.47
FC(F)(F)CCc1ccnc(NCCN2CCNCC2)n1	1%	-0.3
Cc1cccc(NC[C@H]2CCN(c3nc(N)c4cnn(C)c4n3)C2)n1	2%	-0.39
CC(C)(C(=O)O)n1cc(NC(=O)Cc2ccc3cn[nH]c3c2)cn1	-2%	0.3
C[C@H]1[C@@H](c2nnc(C=Cc3ccnc4ccccc34)o2)CCCN1C	2%	-0.29
C[C@](O)(COc1ccc2c(c1)CCCNC2=O)C(F)(F)F	-6%	0.9
CCN1CCN(CC(C)CNC(=O)C2CCCN(C(=O)c3cc(C)cc(C)c3)C2)CC1 (stereo unspecified)	-8%	1.49
C[C@H](O)c1nc2cc(-c3cc(N)nc4[nH]ccc34)ccc2[nH]1	-1%	0.16
COc1cc(OC2CC2)ccc1-c1nnc(-c2c(C)nc3ccccn23)o1	-7%	1.59
CCc1ccc(CN(C)C(=O)C2CC(c3ccccc3)N3CCCC23)nc1 (stereo unspecified)	-3%	0.58
Cc1ccc(NCCCNC2CCN(c3ccc4c(c3)OCO4)CC2)nc1	-7%	1.18
